Data published in the supplement of paper PMC11417369.
The list shows a part of the results.

These sequences were tested on PF3D7_0420300 AP2 domain 1 (GST-tagged) (assay: gcPBM binding intensity (ln(normalized median fluorescence intensity)); higher = stronger DNA binding).
In short: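 GST-fused DNA-binding domains of P. falciparum, expressed in E. coli, were applied at about 25 μg on average for 1 h to an Agilent 4 × 180k array of primer-extended double-stranded 36-bp intergenic genomic probes and negative controls. Binding intensity is the highest Masliner-normalised natural-log median intensity across replicate spots of either probe orientation, measured with Alexa488 anti-GST antibody and a 488 nm scan.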

| Sequence | gcPBM binding intensity (ln) |
| --- | --- |
| ATATTTTTTTTTTCGTGTACGCATAAATATATCTAA [XGTACX_site3360] | 9.24 |
| TAGATAAACAAGAAATGTACAAACGTAAATATGTTC [XGTACX_site2373] | 9.51 |
| ATATATTATTTCTAGTGTACATACCCATATATAATA [XGTACX_site8902] | 9.46 |
| ATAAATAAGATATATACACACATATCTATACATATT [CACACA_site6369] | 9.58 |
| AATCCACTTTTTTATGTTATACAATATAAATTAAAT [XGTACX_negctrl_site446] | 9.17 |
| GGCTAAAAGGGGCACACACACAAAAAAAAAAAAAAA [CACACA_site3288] | 9.59 |
| ATTTAAGAAAAAAGTTGTACTTATTTATTTTTATTT [XGTACX_site5561] | 9.12 |
| ATACATATAAATAATTGTACTATTAAAAAAGAACGT [XGTACX_site3751] | 9.4 |
| CAATTAGCATTTTATTGTACATTTATAATCTATGAT [XGTACX_site1445] | 9.25 |
| AAAAAAAAAAATACTCGTACATAAACCTATACATTT [XGTACX_site6494] | 9.44 |
| CTTAGAATATATGAATGTACTTTTTTTTTTAAATAA [XGTACX_site6048] | 8.7 |
| AGTATACAGATATATACACACATATATATATATATA [CACACA_site4323] | 9.39 |
| ATAATATATTTTTGTAGTACACTTCTGGTAATATCG [XGTACX_site2402] | 9.31 |
| TATATATATATATGTTGTACAAAAATGTAAAATATA [XGTACX_site7761] | 9.24 |
| TCATTTTATTTTTTCACACACACATCTATATTTATA [CACACA_site7547] | 10 |
| ACAAAAATAAACTATAGTACACACTTATTATTATGA [XGTACX_site5680] | 9.39 |
| TAAGTAACTTTTAAAAGTACCCACACATATATATAT [XGTACX_site1231] | 9.42 |
| TTTCTTTTTTTTTTTTTTTTTTTTTTTTTTTTTTTT [TGCATGCA_negctrl_site91] | 9.1 |
| AAAAAAAAGAAAAACACACACATATATATATAGAAT [CACACA_site1006] | 10.2 |
| TTTCCCTTGTTGTAAACATGCACAATATTTAGGTAT [TGCATGCA_site49] | 9.3 |
| TATATTTATAGGTATACACACATATGTATGTTATGT [CACACA_site7824] | 9.5 |
| TTATGTATTTATATAAATATAAATATATATATATAT [CACACA_negctrl_site774] | 8.99 |
| TCTTAATATCGTTTCTCACACATATACAAACATAAA [CACACA_site5700] | 9.27 |

| Sequence | gcPBM binding intensity (ln) |
| --- | --- |
| TATTATAGAAATTTAATGTTGGACAAAAAAATGAAA [CACACA_negctrl_site1351] | 9.25 |
| AATATATGAATTATATGTACATATAGATAAGTCACA [XGTACX_site7637] | 9.32 |
| AGAGAGAAAGCTATAACATGCAACAATTTTTAGAAC [TGCATGCA_site596] | 9.46 |
| AAATTATTTATTTTATGTACATATTATTAAAGTTAA [XGTACX_site552] | 9.07 |
| ATAAATGACAAATTAACACACATATATTATAGATAT [CACACA_site7770] | 9.68 |
| AAAATGTGATATGTAAATATATATGTATGTATATAT [CACACA_negctrl_site1748] | 9.42 |
| ATCTATATTTAATTTACACACAAAAAAAATTGTTGG [CACACA_site6582] | 9.53 |
| TAATGCATTTTCGCATGTACATATTTCTCTTTATAT [XGTACX_site8915] | 9.23 |
| ATAATATTAATATGTACACACCTTAATCCTTAAAAG [CACACA_site7640] | 9.28 |
| GTATTTATATGATTAACACACATATGGGTATTAATA [CACACA_site4853] | 9.34 |
| TATACCTGAATTAAAAGTACATGTATATATTTTCCC [XGTACX_site3594] | 9.18 |
| ATAATTTTTTAAGTGTGTACTAAAATGTGTATTTTA [XGTACX_site6227] | 9.36 |
| TTGCATTTTCTAGTAACACACAATTAGCGTTGCTGT [CACACA_site3594] | 9.32 |
| TAACAAAAAGGGAACACATGCGCTCTTTATTTATTT [TGCATGCA_site620] | 9.38 |
| TATAGAAGCATTCACACACACACATACATACACATA [CACACA_site1466] | 10.2 |
| ACACATACATATACATACACATTGTTTTCATGCATC [XGTACX_negctrl_site126] | 9.52 |
| TATATGTGTCTACAGGTGCATATATCATATATTGCT | 9.27 |
| TATAAATATTTATACACACACATATATTTATATATC [CACACA_site6366] | 9.82 |
| TAAATAAATTTATACACACACACACGGATATAAATA [CACACA_site6532] | 10.1 |
| ATATTTTCTTTAAATTGTACATATTGTGATACAAAA [XGTACX_site5886] | 8.92 |
| TATGTATTTTTATGCACACATGCGTGGCTTATATAA [CACACA_site387] | 9.26 |
| TATATACATACATGTAGTACCTAATTCGGTCCCGTA [XGTACX_site2702] | 9.2 |
| TTTCATTTAGCTTTTACACACTATATATTATTGATT [CACACA_site16] | 9.59 |

| Sequence | gcPBM binding intensity (ln) |
| --- | --- |
| GTTTGGTGGTGTTTTGGTACGTACGGGGGGGTATGT [XGTACX_site1983] | 10.9 |
| TTTTTTTTTTTTTATTGTACTTATTTTTTTATGTTT [XGTACX_site7725] | 9.43 |
| GTATTATATATATAGGTGCATATATATATATAAATA [GTGCAC_site9787] | 9.14 |
| AAATATAAAGGATTAATATTATATATATATATATAT [XGTACX_negctrl_site211] | 9.06 |
| TTGAAATATACGTAAGTAAATTTCATTTGGTTGTGT [XGTACX_negctrl_site600] | 9.14 |
| AAAATATTTATTACTTCACACATTATTGTATTTATA [CACACA_site5082] | 9.46 |
| CATATATTATTATATGCACACATGAAAATATACAAA [CACACA_site2795] | 9.49 |
| GTATAACTTTTGCGCGTACACACATTTATCCTCTTT [CACACA_site208] | 10 |
| TTTCTTTTTTTATAATCCACATTGGGAAAATCAAAA [TGCATGCA_negctrl_site159] | 8.72 |
| ACGTATAATATGTACACACACATATATACAAAAAAA [CACACA_site917] | 9.71 |
| TAGAATATCCCCTACACACCCAAATAATTTACAAAT [CACACA_site4825] | 9.72 |
| AAAGTTGTTACGAACATACACACGAACATACTCACG [CACACA_site604] | 9.6 |
| ATACGTGGGCAAAAAGTGCATATAATCAAAAAAAAA [GTGCAC_site9961] | 9.18 |
| ATATATATATTTGTATGTACATATCATATTGTGTGT [XGTACX_site1580] | 9.69 |
| AAGATATTTGAATATACACACGATTTAAATTTAATA [CACACA_site3866] | 9.31 |
| TTCTTTCTGTTTTATTTATAATAATTTATGATAAAA [CACACA_negctrl_site766] | 9.19 |
| TGTTTTTAATTTCGCACACACCTTGTGGAAAAAAAA [CACACA_site4482] | 9.19 |
| AGAAAGAATGAAAAATGTACATATATGTAATAGCTA [XGTACX_site364] | 9.44 |
| TAAAATTTAAAAAGGTGTACACTATAAATTAAAATA [XGTACX_site2081] | 9.19 |
| TTAACATATGACATTTTTTCACCCTTCCTTTATTTT [CACACA_negctrl_site1192] | 9.57 |
| ATAAAATCATTCAATGGTACAGAAATACAAAATGTA [XGTACX_site6739] | 9.31 |
| TATGTATAAAAATATTGTACATATTATATATATATA [XGTACX_site2947] | 9.05 |
| TTTTTTTTTTTTTTTTTTTGATTCTTATAAAAATTT [GTGCAC_negctrl_site240] | 8.26 |

| Sequence | gcPBM binding intensity (ln) |
| --- | --- |
| AGGTCACATTTGTCCTCACACATAGATAAATATATA [CACACA_site5460] | 9.14 |
| ATAATTTGATCAATTTTTCATTTTTCATTTTTTTAA [CACACA_negctrl_site1252] | 9.06 |
| AATTAGCATTAAAAATGTACAAAAGAAAAAAATATA [XGTACX_site3816] | 9.21 |
| GTCAAAAATAATATATGTACTTATAATAGATAAATG [XGTACX_site7755] | 9.2 |
| ATGATATGGATAAATACACACAATAAAATAATGTCT [CACACA_site6786] | 9.54 |
| TTTTAACAAAACAAAACAAAATAATATAAAGATAAC [TGCATGCA_negctrl_site154] | 9.57 |
| TTTATTTATTTATGTTGTACAAGTTTATACTGGAAT [XGTACX_site6479] | 9.21 |
| TTTTGATATAAAAAAAGTACATTAATAATATTAATT [XGTACX_site4248] | 8.87 |
| CAGTATTCTTCTATATGTACTTATTTAAATATTCTT [XGTACX_site7555] | 9.43 |
| TAAATAATAATAAATGTGCACAGGTATTAACAAAAA [GTGCAC_site9988] | 9.62 |
| AATCAAAATTCATTAACACACAATTTTAATATTCTT [CACACA_site5178] | 9.27 |
| TATTTTTATAAGAGCATGCACTGTTTAAAATGGTAT | 9.13 |
| TTTTTTAAAATATGGACACACATATATATATATGTA [CACACA_site2784] | 9.06 |
| AATGACTACATAATAGTGCAATATTAAAGAAAATTA | 9.23 |
| TGTATATCATAAGATGGTACACGTGTGTGCGTATGC [XGTACX_site2255] | 9.49 |
| ATTCTTAAAAAAAAATGTACACATGAACAATATGTA [XGTACX_site362] | 9.06 |
| AGGTGAATATTTTTTACACACATAAAAAAAATATAT [CACACA_site57] | 9.37 |
| TATATATTATATATGTGTACTCACTAACAAAAATTA [XGTACX_site6285] | 9.04 |
| TTTAAGATTTTGTAATGTACATATATACATATATAT [XGTACX_site399] | 9.12 |
| AAATTATATAAAGGAACACACATTTTATTTTATTTT [CACACA_site1500] | 9.32 |
